According to PubChem BioAssay AID445 (National Center for Advancing Translational Sciences (NCATS), 2006):
The whole screen tested about 110,000 compounds, of which about 40 (0.04%) were called active. The shares of active, inactive and inconclusive entries below differ from those in the screen. Calls come from the whole dose curve; as a rule, active = well fitted curve in the direction sought with a large enough effect in the signal ratio (not every such curve was filed as active); inconclusive = small, poorly fitted or top-dose-only effect, or a change in a side signal; inactive = flat fitted curve, though single readings scatter; the % refers to the signal ratio. Where the call is inconclusive, the potency comes from a doubtful curve fit.

Test: IkB Signaling;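 for IkBa stabilization activation: 0% = basal untreated cells and 100% = reference inhibitor full response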
Settings: ABC-DLBCL IkBa-CBG/CBR dual luciferase ratio (green luciferase fused to IkBa over red control in OCI-Ly3 lymphoma cells), 4 h; IkBa stabilization activation: at 57.1 µM (top of the series), scaled: untreated 0%, proteasome inhibitor 100% unless noted
Summary of the method: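 In this assay, an IκBα–CBG68 fusion accumulates when IKK-driven degradation is blocked; native CBR normalizes for cell number. OCI-Ly3 cells were treated 4 h with compound and doxycycline, then green and red light read after Chroma-Glo addition.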
Potency is the fitted concentration of half-maximal effect.

| Compound | Potency | IkBa stabilization activation |
| --- | --- | --- |
| Cc1ccc(-c2nnc(Nc3cccc(O)c3)c3ccccc23)cc1S(=O)(=O)N1CCCCC1 | inconclusive: 15.8 µM [signal inhibitor, partial curve] | – |
| CCOc1ccc(OCC)c(NC(=O)c2csc3c2CCCC3)c1 | – | inactive: 1.08% |
| O=C(O)CCC(=O)c1cccc2ccccc12 | – | inactive: -2.74% |
| CCCc1ccc(-c2ccc(C(=O)Oc3ccc(Br)cc3)cc2)nc1 | inconclusive: 15.8 µM [signal inhibitor, partial curve] | – |
| COC(=O)c1ccc(CSc2nc3c([nH]c4ccccc43)c(=O)n2-c2cc(C)cc(C)c2)o1 | – | inactive: 1.98% |
| CN(C(=O)Cn1ncc2c1-c1ccccc1OC2)c1ccc(Br)cc1 | – | inconclusive: 1.5% [signal inhibitor] |
| CCS(=O)(=O)c1cccc(C(=O)N2CCN(c3nc4c(C)ccc(Cl)c4s3)CC2)c1 | – | inconclusive: 14.9% [signal inhibitor] |
| CCCCCn1c(CNC(=O)c2ccc(F)cc2)nc2ccccc21 | – | inconclusive: -0.439% [signal inhibitor] |
| O=C(Cn1nnc2c(cnn2-c2ccccc2)c1=O)N1CCN(c2ccccc2F)CC1 | – | inconclusive: 5.42% [signal inhibitor] |
| CN(C)C1(CNC(=O)COc2ccc(C(C)(C)C)cc2)CCCCC1 | – | inconclusive: 0.803% [signal inhibitor] |
| CCCCCn1c(-c2cccc(C)c2)nc2ccccc21 | – | inconclusive: 1.68% [signal inhibitor] |
| O=C(Nc1ccc2c(c1)OCO2)c1cc(-c2ccc(Cl)cc2)on1 | – | inconclusive: 7.54% [signal inhibitor] |
| CCOC(=O)c1c(C)[nH]c(C(=O)COC(=O)c2ccncc2)c1C | – | inactive: -3.67% |
| CC1CN(c2nc3ccccc3nc2C(C#N)C(=O)NCc2ccc3c(c2)OCO3)CC(C)O1 (stereo unspecified) | – | inactive: 2.72% |
| CSc1cccc(NC(=O)C2CCCN(S(=O)(=O)c3ccc(F)cc3)C2)c1 (stereo unspecified) | – | inconclusive: 2.58% [signal inhibitor] |
| COc1ccc(OC)c(CCNC(=O)C(C)n2c(C)c3cnn(-c4ccccc4)c(=O)c3c2C)c1 (stereo unspecified) | – | inconclusive: 3.1% [signal inhibitor] |
| COc1ccccc1CNS(=O)(=O)c1ccc(N2CCCCS2(=O)=O)cc1 | – | inconclusive: -2.11% [signal inhibitor] |
| O=C1c2ccccc2C(O)N1Cc1ccco1 (stereo unspecified) | – | inactive: -0.457% |
| CCOc1cc(CNc2ncc(-c3ccc(OC)cc3)n2C)ccc1O | – | inactive: -0.135% |
| O=C(CCc1nc2ccccc2s1)N1CCN(S(=O)(=O)c2cccs2)CC1 | – | inconclusive: 0.936% [signal inhibitor] |
| S=C([S-])NCCNC(=S)[S-].[Zn+2] | – | inactive: 1.95% |
| CCn1c(SCc2ccc(F)cc2Cl)nc(=O)c2c(C(=O)OC)cc(C3CC3)nc21 | – | inconclusive: -4.39% [signal inhibitor] |
| c1ccc(-c2cc3c(-n4cccc4)ncnc3o2)cc1 | – | inconclusive: 3.13% [signal inhibitor] |
| Cc1cc(NC(=O)COc2ccc(N(C)S(=O)(=O)c3ccccc3)cc2)no1 | – | inconclusive: 2.21% [signal inhibitor] |

| Compound | Potency | IkBa stabilization activation |
| --- | --- | --- |
| CC(C)C1N=C2c3ccccc3N=C(SCC(=O)NCc3ccccc3Cl)N2C1=O (stereo unspecified) | – | inconclusive: 1.4% [signal inhibitor] |
| CCCn1c(=O)c2sccc2n2c(CCCC(=O)Nc3ccc(Oc4ccccc4)cc3)nnc12 | – | inconclusive: -0.632% [signal inhibitor] |
| N=c1cc(C2(O)CCCCC2)n2c(nc3ccccc32)s1 | – | inactive: 0.277% |
| CCN(CC)CCCNC(=O)CSc1nc2nc(C)c(Cc3c(F)cccc3Cl)c(C)n2n1 | – | inconclusive: 3.56% [signal inhibitor] |
| NC(=O)c1ccsc1NC(=O)COC(=O)c1ccccc1NCc1ccco1 | – | inconclusive: 16.6% [signal inhibitor] |
| COc1ccc(N2CCn3c2nc2c3c(=O)n(CCCc3ccccc3)c(=O)n2C)c(OC)c1 | – | inconclusive: 7.96% [signal inhibitor] |
| Nc1ncnc2c([C@@H]3O[C@@H](CO)[C@H](O)[C@@H]3O)nsc12 | – | inconclusive: 3.96% [signal inhibitor] [at 11.4 µM, scaled: untreated 0%, proteasome inhibitor 100%] |
| O=c1[nH]c(C2CCCN(S(=O)(=O)c3ccccc3)C2)nc2c1nnn2Cc1ccccc1F (stereo unspecified) | – | inconclusive: 2.89% [signal inhibitor] |
| COc1ccc(Cn2ccc3nc(C)c(C(=O)N4CCN(c5ccccc5OC)CC4)cc3c2=O)cc1 | – | inconclusive: 4.79% [signal inhibitor] |
| CC1=C(C(N)=O)C(c2cccc(C)c2)n2nc(-c3cccc(C)c3)nc2N1 (stereo unspecified) | – | inconclusive: -1.9% [signal inhibitor] |
| CC(C)c1ccc(OCc2nc(-c3ccccn3)no2)c(Br)c1 | – | inconclusive: 13.4% [signal inhibitor] |
| CN(Cc1ccccc1)C(=O)c1cccc(NC(=O)c2nsc3ccccc23)c1 | – | inactive: 2.05% |
| CC(C)(C)OC(=O)N1CCC(c2c(C(=O)N3CCN(c4ccccn4)CC3)cnn2-c2ccccc2Cl)CC1 | – | inconclusive: 2.76% [signal inhibitor] |
| CCOCCCNC(=O)c1cn(CC)c2ccc(S(=O)(=O)N3CCc4ccccc4C3)cc2c1=O | – | inconclusive: -1.25% [signal inhibitor] |
| CCOC(=O)c1[nH]c(C)c(CCC(=O)N2CCN(c3cccc(C)c3C)CC2)c1C | – | inconclusive: 0.379% [signal inhibitor] |
| Cc1ccc2nc(-c3ccncc3)c(Nc3ccc(C(C)C)cc3)n2c1 | – | inconclusive: -5.66% [signal inhibitor] |
| Cc1ccc(CSc2nc(-c3ccc(C(C)(C)C)cc3)nc3cc(=O)[nH]n23)cc1 | – | inconclusive: -2.48% [signal inhibitor] |
| Cc1cc(N2CCCCC2)n2nc(C)c(-c3ccccc3)c2n1 | – | inactive: -2.28% |
| N#CC1=C(N)N2C(=C(C#N)C13CCCCC3)SC1CCCCC12O (stereo unspecified) | – | inconclusive: 2.96% [signal inhibitor] |
| COc1ccc(OC)c(CNC(=O)c2c(C)oc3ncn(C)c(=O)c23)c1 | – | inconclusive: 3.2% [signal inhibitor] |
| O=C(c1ccc2c(c1)CCN2S(=O)(=O)c1ccc(Cl)cc1)N1CCN(c2ccccc2)CC1 | – | inconclusive: 0.059% [signal inhibitor] |
| CCOC(=O)c1c(C)oc2c1c(C(c1ccncc1)N1CCOCC1)c(O)c1ccccc12 (stereo unspecified) | – | inconclusive: 1.46% [signal inhibitor] |
| CC(=O)Nc1ccc(S(=O)(=O)NCc2cccn2Cc2cccc(C)c2)cc1 | – | inconclusive: 4.91% [signal inhibitor] |
| Cc1c(C(=O)OCC2CCCO2)[nH]c2c1C(=O)CC(c1ccco1)C2 (stereo unspecified) | – | inactive: -1.6% |

| Compound | Potency | IkBa stabilization activation |
| --- | --- | --- |
| CCOc1ccc(CN2C(=O)c3ccccc3Sc3ccc(C(=O)OC)cc32)cc1 | – | inconclusive: 1.08% [signal inhibitor] |
| O=S(=O)(Nn1cnnc1)c1ccccc1Cl | – | inconclusive: 0.138% [signal inhibitor] |
| COC(=O)C1=C(C)N=c2s/c(=C/c3ccoc3)c(=O)n2C1c1ccccc1 (stereo unspecified) | – | inactive: 3.46% |
| COc1ccc(CNC(=O)c2ccc3c(c2)N(Cc2ccccc2C)C(=O)c2ccccc2S3=O)cc1 (stereo unspecified) | – | inconclusive: 1.49% [signal inhibitor] |
| Cc1ccc2[nH]c(-c3ccccc3)cc(=O)c2c1 | – | inactive: 13.6% |
| Nc1ccccc1N | – | inconclusive: 2.97% [signal inhibitor] |
| Cc1sc2nc(CN3CCOCC3)nc(NS(=O)(=O)c3ccc4c(c3)OCCO4)c2c1C | – | inactive: -1.12% |
| COc1ccccc1-n1c(-c2cccnc2)n[nH]c1=S | – | inconclusive: 18.9% [signal inhibitor] |
| Cn1c(/C(C#N)=C/C2CC=CCC2)nc2ccccc21 (stereo unspecified) | – | inactive: 5.99% |
| COc1ccc(Cl)cc1NC(=O)CCN1C(=O)c2ccccc2Sc2ncccc21 | – | inconclusive: 2.65% [signal inhibitor] |
| CCC(=O)Nc1nc2ccccc2n1Cc1ccccc1 | inconclusive: 31.6 µM [rising, partial curve] | – |
| CC(C)C(=O)N1c2nc(C(C)C)nn2C2(CCCCC2)[C@@H]2CCCC[C@@H]21 | – | inconclusive: 0.842% [signal inhibitor] |
| Cc1cc(/C=N/n2cnnc2)c(C)n1-c1ccc(C(=O)O)cc1 | – | inactive: 0.638% |
| Cc1cc(C)c2c(=O)cc(CSc3nnc(-c4ccccc4)n3C)[nH]c2c1 | – | inconclusive: 1.79% [signal inhibitor] |
| Cc1ccc(Nc2nc3ccccc3c3nnc(C)n23)cc1Cl | – | inconclusive: -1.64% [signal inhibitor] |
| Cc1ccc(CNc2ccc(O)cc2)cc1 | inconclusive: 12.6 µM [signal inhibitor, partial curve] | – |
| COc1ccc(OC)c(Nc2ncc3c(n2)CCN(Cc2cc(OC)c(OC)c(OC)c2)C3)c1 | – | inactive: -0.681% |
| CCn1c(SCC(=O)c2cc(C)n(CC3CCCO3)c2C)nc2ccccc21 (stereo unspecified) | – | inconclusive: 3.04% [signal inhibitor] |
| O=C(Nc1nc2c(s1)CCCC2)c1cccs1 | inconclusive: 15.8 µM [signal inhibitor, partial curve] | – |
| COC(=O)c1ccccc1NC(=O)Nc1cccs1 | – | inconclusive: 16.4% [signal inhibitor] |
| CCCC(CCC)C(=O)Nc1cccc(-c2nc3cccnc3s2)c1 | – | inconclusive: -0.624% [signal inhibitor] |
| CC(=O)Oc1cc2c(C(=O)NCCCN3CCOCC3)c(C)oc2c2ccccc12 | – | inconclusive: 1.87% [signal inhibitor] |
| CC(=O)Nc1ccc(NS(=O)(=O)c2ccc3[nH]c4c(c3c2)CCCCC4)cc1 | – | inconclusive: 0.629% [signal inhibitor] |
